Among all 310,000 compounds or so, about 2,200 (0.71%) showed an effect of 50% or more. The effect is printed as a negative number. The list shows a part of the results.
Target: human ether-à-go-go-related gene (hERG) potassium channel (human, UniProt Q12809)
Test: primary screen, population patch clamp on CHO cells stably expressing hERG

human ether-à-go-go-related gene (hERG) potassium channel, sequence (Q12809 whole entry, looked up): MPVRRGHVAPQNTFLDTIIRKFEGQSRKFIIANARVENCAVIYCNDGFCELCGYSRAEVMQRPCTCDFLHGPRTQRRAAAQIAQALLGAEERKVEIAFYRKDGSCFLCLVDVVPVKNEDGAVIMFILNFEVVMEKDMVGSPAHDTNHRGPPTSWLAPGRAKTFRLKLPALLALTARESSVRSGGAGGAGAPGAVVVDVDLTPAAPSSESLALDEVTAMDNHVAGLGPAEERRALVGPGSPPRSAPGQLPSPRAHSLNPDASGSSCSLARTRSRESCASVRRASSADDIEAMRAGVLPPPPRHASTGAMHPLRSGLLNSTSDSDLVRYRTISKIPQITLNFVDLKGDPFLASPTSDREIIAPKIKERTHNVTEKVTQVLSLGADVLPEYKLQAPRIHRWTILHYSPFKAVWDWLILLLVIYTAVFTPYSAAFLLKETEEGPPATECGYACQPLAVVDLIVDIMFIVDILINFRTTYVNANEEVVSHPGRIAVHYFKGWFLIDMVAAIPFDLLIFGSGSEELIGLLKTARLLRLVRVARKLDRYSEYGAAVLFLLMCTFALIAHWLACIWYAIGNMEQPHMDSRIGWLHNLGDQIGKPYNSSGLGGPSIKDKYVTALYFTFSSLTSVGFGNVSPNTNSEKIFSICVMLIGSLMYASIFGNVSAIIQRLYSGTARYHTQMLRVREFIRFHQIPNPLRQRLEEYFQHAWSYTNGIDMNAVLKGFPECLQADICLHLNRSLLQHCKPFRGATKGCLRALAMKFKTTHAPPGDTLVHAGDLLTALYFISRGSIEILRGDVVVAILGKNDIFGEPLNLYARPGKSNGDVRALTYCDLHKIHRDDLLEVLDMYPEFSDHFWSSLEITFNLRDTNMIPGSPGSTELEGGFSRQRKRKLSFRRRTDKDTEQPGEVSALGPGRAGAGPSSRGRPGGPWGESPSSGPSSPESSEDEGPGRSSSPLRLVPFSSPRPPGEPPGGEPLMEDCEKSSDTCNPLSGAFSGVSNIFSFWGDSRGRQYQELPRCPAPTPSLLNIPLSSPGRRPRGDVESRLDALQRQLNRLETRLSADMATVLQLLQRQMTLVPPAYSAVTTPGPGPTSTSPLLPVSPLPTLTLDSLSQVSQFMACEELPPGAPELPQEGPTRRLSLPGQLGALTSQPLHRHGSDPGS

SMILES	hERG current change (%, negative = inhibition) at 1uM [%]
CCCCOC(=O)c1ccc(NC(=O)C(=O)NCc2ccccn2)cc1	13.5
O=C(CCNC(=O)c1ccccc1Cl)NCc1ccncc1	9.03
O=C(Nc1ccccc1F)Nc1ccccc1N1CCCCC1	10.4
Cc1cc(C(=O)NNC(=O)c2ccc(C(F)(F)F)cc2)no1	17.7
O=c1oc2ccccc2c(O)c1Cc1cc(Cl)c2cccnc2c1O	14.7
O=C(NCc1ccccc1)C1C2C=CC3(CN(Cc4cccnc4)C(=O)C13)O2 (stereo not drawn)	12.6
O=Cc1ccc2noc(-c3ccc(Cl)cc3)c2c1	1.55
COc1ccccc1N1CCN(C(=O)Cc2cccs2)CC1	-1.14
COCCn1c(-c2ccc(OC)cc2)nc2oc3cc(OC)ccc3c(=O)c2c1=O	-10.3
Cc1noc(C)c1COc1ccc(CC(=O)NC2CCCCCC2)cc1	17.8
CC(O)(CS(=O)(=O)Cc1ccccc1)c1ccc(Cl)cc1 (stereo not drawn)	9.03
Cc1ccccc1-c1cccc([C@@H]2C[C@H]3CN(Cc4cccnc4)C(=O)[C@]34CCCN24)c1	-15.9
Cc1cc(=O)oc2cc(OCC(=O)NC3CCN(Cc4ccccc4)CC3)ccc12	14.5
O=C1CN(O)C(c2ccccc2)=c2cc(Br)ccc2=N1	15.1
CCOC(=O)c1c(O)c2c([nH]c1=O)CCCC2	11.3
CS(=O)(=O)C1=NSC2=NC(=O)/C(=C\c3cccn3-c3ccccc3Cl)C(=N)N21	22.2
O=C(O)c1ccc(NC(=O)c2ccc(Cl)cc2)c(NC(=O)c2ccc(Cl)cc2)c1	18.1
COc1ccc(OC)c(NC(=O)CN(c2ccc(C)cc2)S(=O)(=O)c2c(C)noc2C)c1	14.2
O=C(NCCc1cn[nH]c1)C1CCC(=O)N(CCc2cccc(F)c2)C1 (stereo not drawn)	15.5
O=C(CSc1ccc(Cl)cc1)N1N=CCC1c1ccccc1 (stereo not drawn)	5.22
CC(=O)NCCc1c[nH]c2ccc(OCC(O)CNC(C)(C)C)cc12.O=C(O)c1ccccc1 (stereo not drawn)	16.7

SMILES	hERG current change (%, negative = inhibition) at 1uM [%]
COc1ccc2c(c1)CCC/C2=N\Nc1nc(C(=O)NN)cs1	5.95
COc1cc(OC)cc(C(=O)Nc2nc3ccc(S(C)(=O)=O)cc3s2)c1	10.8
COc1cccc(CNc2nc3ccccc3n2CCN2CCCCC2)c1OC	-15.1
CN(CCOc1ccc(Br)cc1)CC(=O)Nc1cccc(S(=O)(=O)NC2=NCCC2)c1	16.5
O=C(Nc1ccc(Nc2ccncc2)cc1)c1ccc([N+](=O)[O-])cc1	-34.7
Cn1c(N)c(C(=O)COC(=O)COc2ccc(Cl)cc2)c(=O)n(C)c1=O	2.63
COc1ccc(NC(=O)COc2ccc3oc(=O)cc(C)c3c2)cc1	5.33
CC(C)C(C)NC(=O)COc1nc2ccccc2nc1N(C)C1CCCCC1 (stereo not drawn)	19.5
CSc1ccc(N=Nc2c(C)[nH]n(C)c2=O)cc1	6.21
CCc1ccc(CC2S/C(=C(\C#N)C(C)=O)NC2=O)cc1 (stereo not drawn)	8.45
C=CCn1c(CSc2nc3ccccc3s2)nnc1SCC(=O)NCc1ccco1	4.51
CCN(CC)c1ccc(NC(=O)c2ccc3c(c2)c(C)c(C)n3C)cc1	0.0326
CCN(CC)CCCN(Cc1cc2cc3c(cc2[nH]c1=O)OCO3)C(=S)NCCCOC	-1.26
COC(=O)c1ccc(C(=O)Nc2nc3cc(N)c(C)cc3s2)cc1	10.3
COc1cc(NC(=O)C2CCC(CNS(=O)(=O)c3csc(C(N)=O)c3)CC2)cc(OC)c1 (stereo not drawn)	16.2
N#Cc1c(NC(=O)c2ccncc2)sc2c1CCC2	5.7
CSc1cccc(NC(=O)c2cc(S(=O)(=O)N3CCCCC3)c[nH]2)c1	13.6
COc1ccc(C2Nc3ccccc3C(=O)N2c2ccc(F)cc2)cc1Cn1nnc2ccccc21 (stereo not drawn)	5.99
Cc1ccc(/C=N/NC(=O)CNC(=O)c2cccs2)o1	22
CCOc1cc2c(cc1OCC)CN(C(=O)c1cccc(S(=O)(=O)N3CCCC3)c1)CC2	13.1
Cn1c(SCC(=O)NC2CC2)nnc1C1CC1	-0.518

From PMC4336329 (PLoS ONE, 2015)
